Test results taken from patent US20250326800A1, “NOVEL POLYPEPTIDES” (Oncopeptides Innovation 1 AB, priority 2022, published 2025).

How the values were obtained:
CD16a = assay: CD16 activation Jurkat-Lucia Luciferase reporter assay; assay type: cell-based, human
MM1.S target cells = assay: Calcein-release-based in vitro cytotoxicity assay with NK cells; assay type: cell-based; details: 4 h co-culture, NK:target 1:1

CD16a activation (CD16a; presence of MM.1s target cells, 24 h, normalized to Elotuzumab): demonstrated CD16a activation
B1: Example Compound 144: dual engager without C-terminal His6 tag (protein)
chain: VDNKFNKENQFADEEIAALPNLNFYQKWAFIRKLMDDPSQSANLLAEAKKLNDAQAPKGGGSGGGGSGVDNKFNKENQFADEEIAALPNLNFYQKWAFIRKLMDDPSQSANLLAEAKKLNDAQAPKGGGSGGGGSGVDNKFNKEVQMAQFEIRKLPNLNHHQSFAFIKSLMDDPSQSANLLAEAKKLNDAQAPK
CD16a activation in the absence of target cells (CD16a; no MM.1S cells): no detectable activation | NK cell mediated killing of MM.1S cells (MM1.S target cells): induced NK cell mediated killing of MM.1S cells
